Measurements reported in PubChem BioAssay (NCATS).
Values joined by “and” are separate entries in the source; they are usually repeats but may differ in a detail not shown here. Identical values can stand only once. Inconclusive means that the source gave no clear call. Such entries were picked first, then a sample of the others. No potency is given beside an inconclusive call; the fits are too rough. “Side channel” marks fits to a control or component signal instead of the main read-out. More than one record can exist for a structure, and the calls need not agree. Active and inactive are the calls of the source. Calls follow the shape of the dose curve; as a rule, active = well fitted activation curve with a large enough effect in the signal ratio (not every such curve was filed as active); inconclusive = small, poorly fitted or top-dose-only effect, or a change in a side signal; inactive = flat fitted curve, though single readings scatter; the % refers to the signal ratio.

Assay: qHTS assay for small molecule activators of the p53 signaling pathway (AID 651743); as to activation: series mostly up to about 92 µM; % of control where 0% means no effect
Details: HCT-116 p53RE-bla, beta-lactamase FRET ratio, 16 h; activation: active compounds read high
Description: National Center for Advancing Translational Sciences [NCATS] NIH Chemical Genomics Center [NCGC] U.S. Environmental Protection Agency [EPA] National Institutes of Environmental Health Sciences [NIEHS] National Toxicology Program [NTP] Assay Overview: p53, a tumor suppressor protein, is activated following cellular insult, including DNA damage and other cellular stresses. The activation of p53 regulates cell fate by inducing DNA repair, cell cycle arrest, apoptosis, or cellular senescence. The activation of p53, therefore, is a good indicator of DNA damage and other cellular stresses. The CellSensor p53RE-bla HCT-116 cell line (Invitrogen) contains a stably integrated beta-lactamase reporter gene under control of the p53 response elements. The activation of the report gene under culture conditions can be detected by fluorescence intensity. This cell line can be used to screen chemicals in a 1536-well plate format and to identify agonists that activate p53 signaling pathway.
Assay Protocol Summary: The p53RE-bla cells were dispensed at 4,000 cells/5 ul/well in 1536-well black wall/clear bottom plates using a Multidrop dispenser. After the assay plates were incubated at a 37 C/5% CO2 incubator for 5 hours, 23 nL of compounds dissolved in DMSO, positive controls or DMSO only was transferred to the assay plate by a pin tool. The plates were incubated at 37 C for 16 hours. After 1 uL of LiveBLAzer B/G FRET substrate was added using a Flying Reagent Dispenser, the plates were incubated at room temperature for 2 hours, and fluorescence intensity was measured by an Envision plate reader.
Potency is read from the fitted curve at half-maximal effect; tags tell the direction and shape of the fitted curve.

SMILES | activation | Potency
C=CCOc1nc(OCC=C)nc(OCC=C)n1 | inactive: -3.44% | –
CC(C)CCOC(=O)/C=C/c1ccccc1 | inactive: 1.36% | –
CCCCCCCOC(=O)c1ccccc1C(=O)OCCCCCCC | inactive: -3.71% | –
Oc1c(Cl)cc(Cl)c(Cl)c1Cl | – | active: 44.7 µM
Cc1cc(Cc2cc(C)cc(C(C)(C)C)c2O)c(O)c(C(C)(C)C)c1 | – | inconclusive [rising, single point]
NCCCCCCCCCCCC(=O)O | – | inconclusive [side channel, falling, partial curve, poor fit]
CO/N=C1\C[C@]2(C[C@@H]3C[C@@H](C/C=C(\C)C[C@@H](C)/C=C/C=C4\CO[C@@H]5[C@H](O)C(C)=C[C@@H](C(=O)O3)[C@]45O)O2)O[C@H](/C(C)=C/C(C)C)[C@H]1C | – | inconclusive [cytotoxic, side channel, full curve, poor fit]
O=C(O)CN(CCN(CC(=O)O)CC(=O)O)CC(=O)O | inactive: -1.95% and inactive: 0.161% | –
COC(=O)CSc1cc(N=c2sc(=O)n3n2CCCC3)c(F)cc1Cl | – | inconclusive [side channel, rising, partial curve]
O=[N+]([O-])c1ccc(O)cc1C(F)(F)F | – | active: 31.6 µM
CCNC(=S)NCC | inactive: -0.196% | –
COc1ccc(OC)c(OC)c1 | inactive: -1.46% | –
Nc1cnn([C@@H]2O[C@H](CO)[C@@H](O)[C@H]2O)c(=O)n1 | – | active: 0.794 µM
Cc1ccccc1C(=O)O | – | inconclusive [side channel, falling, partial curve, poor fit]
COC(=O)c1cccc(C)c1S(=O)(=O)NC(=O)Nc1nc(OCC(F)(F)F)nc(N(C)C)n1 | – | inconclusive [side channel, falling, partial curve, poor fit]
O=C(O)CN(CCCN(CC(=O)O)CC(=O)O)CC(=O)O | – | inconclusive [side channel, falling, partial curve, poor fit]
CN=C(N)NCC1CCOC1 (stereo not given) | inactive: 20.9% and inactive: -3.95% | –
C1CCC2OC2C1 (stereo not given) | – | inconclusive [side channel, falling, single point]
CCCCCCCCOC(=O)c1cc(O)c(O)c(O)c1 | inconclusive: 34.3% | –
CCC/C(=N\OCC)C1=C(O)CC(O)(CC(C)S(=O)(=O)CC)CC1=O (stereo not given) | inactive: -2.69% | –

SMILES | activation | Potency
CC(C)CCCCCOC(=O)CS | – | inconclusive [single point]
CN(C)Cc1cc(CN(C)C)c(O)c(CN(C)C)c1 | inactive: -4% | –
CCCC/C=C\CCCCCCCCCC=O | inactive: 0.222% | –
O=C(Nc1ccccc1)Nc1ccccc1 | inactive: -2.22% | –
Nc1ccc(Nc2ccccc2)cc1 | – | inconclusive [activator, partial curve]
O=[N+]([O-])c1ccccc1Nc1ccccc1 | inactive: -4.76% | –
C[Si]1(C)O[Si](C)(C)O[Si](C)(C)O[Si](C)(C)O[Si](C)(C)O1 | inactive: 1.25% | –
CCCCC(CC)CN1C(=O)C2C3C=CC(C3)C2C1=O (stereo not given) | inactive: -2.19% | –
CC(=O)c1ccccn1 | inactive: -1.74% | –
CCCCCCCCCCCCCCC(=O)OC | – | inconclusive [side channel, falling, single point]
Oc1ccc2ccccc2c1N=Nc1ccccc1 | – | inconclusive [side channel, falling, partial curve, poor fit]
CSc1ccc(Cl)cc1 | – | inconclusive [side channel, falling, partial curve, poor fit]
CCCCCCCC/C=C\CCCCCCCCCCCCC | inactive: -1.77% | –
CCOC(=O)NCCOc1ccc(Oc2ccccc2)cc1 | – | inconclusive [side channel, falling, partial curve, poor fit]
Cl[Si](Cl)(Cl)c1ccccc1 | inactive: -5.69% | –
Nc1ccc(N)c2c1C(=O)c1c(N)ccc(N)c1C2=O | – | inconclusive [side channel, falling, full curve, poor fit]
CCCCCCCCCCCC(=O)OC | – | inconclusive [side channel, falling, partial curve]
COC(=O)CCCCC(=O)OC | – | inconclusive [side channel, falling, full curve, poor fit]
O=C1CCCCCCCCCCC1 | inactive: -4.42% | –
CCCCOCCO | inactive: -0.263% and inactive: -0.796% and inactive: -1.77% | –
